# Measured values as given in the supplement of paper PMC8728848.
# The list shows a part of the results.
# B1: Cohesin-hDCIR (Homo sapiens) (protein)
# chain: LDDLDAVRIKVDTVNAKPGDTVRIPVRFSGIPSKGIANCDFVYSYDPNVLEIIEIEPGDIIVDPNPDKSFDTAVYPDRKIIVFLFAEDSGTGAYAITKDGVFATIVAKVKEGAPNGLSVIKFVEVGGFANNDLVEQKTQFFDGGANVGDTTEPATPTTPVTTPTTTDDLDAASQKYSQLLEKKTTKELVHTTLECVKKNMPVEETAWSCCPKNWKSFSSNCYFISTESASWQDSEKDCARMEAHLLVINTQEEQDFIFQNLQEESAYFVGLSDPEGQRHWQWVDQTPYNESSTFWHPREPSDPNERCVVLNFRKSPKRWGWNDVNCLGPQRSVCEMMKIHLHHHHHH
# Columns and labels:
# Test in all cases: glycan array binding signal (z-score within array); higher = stronger binding
# Details in all cases: glycan notation: IUPAC condensed, linker removed
# Glc(b1-6)Glc = target: Glc(b1-6)Glc
# Method in brief: (§1)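 Arrays were curated from the Consortium for Functional Glycomics database, 3228 in total, and kept only where the protein sequence was available. Binding is expressed as a within-array Z-score. This score was averaged across arrays of the same protein sequence at different concentrations or buffers and across linkers, and negative values can be read as non-binding.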
# GlcA(b1-3)Gal = target: GlcA(b1-3)Gal
# Method in brief: as §1
# GlcA(b1-3)GlcNAc = target: GlcA(b1-3)GlcNAc
# Method in brief: as §1
# GlcA(b1-6)Gal = target: GlcA(b1-6)Gal
# Method in brief: as §1
# [1] = target: GlcA3S(b1-3)Gal(b1-4)GlcNAc(b1-2)Man
# Method in brief: as §1
# [2] = target: GlcA3S(b1-3)Gal(b1-4)GlcNAc(b1-3)Gal(b1-4)Glc
# Method in brief: as §1
# [3] = target: GlcNAc(a1-3)Gal(b1-4)GlcNAc
# Method in brief: as §1
# [4] = target: GlcNAc(a1-4)Gal(b1-3)GlcNAc
# Method in brief: as §1
# [5] = target: GlcNAc(a1-4)Gal(b1-4)GalNAc
# Method in brief: as §1
# [6] = target: GlcNAc(a1-4)Gal(b1-4)GlcNAc
# Method in brief: as §1
# [7] = target: GlcNAc(a1-4)Gal(b1-4)GlcNAc(b1-3)Gal(b1-4)Glc
# Method in brief: as §1
# [8] = target: GlcNAc(a1-4)Gal(b1-4)GlcNAc(b1-3)Gal(b1-4)GlcNAc
# Method in brief: as §1
# [9] = target: GlcNAc(a1-4)Gal(b1-4)GlcNAc(b1-3)Gal(b1-4)GlcNAc(b1-3)Gal(b1-4)GlcNAc
# Method in brief: as §1
# [10] = target: GlcNAc(a1-4)Gal(b1-4)GlcNAc(b1-3)Gal(b1-4)[Fuc(a1-3)]GlcNAc(b1-3)Gal(b1-4)[Fuc(a1-3)]GlcNAc
# Method in brief: as §1
# [11] = target: GlcNAc(a1-6)Gal(b1-4)GlcNAc
# Method in brief: as §1
# [12] = target: GlcNAc(b1-2)Gal(b1-3)GalNAc
# Method in brief: as §1
# [13] = target: GlcNAc(b1-2)Man(a1-3)[GlcNAc(b1-2)Man(a1-6)]Man(b1-4)GlcNAc(b1-4)GlcNAc
# Method in brief: as §1
# [14] = target: GlcNAc(b1-2)Man(a1-3)[GlcNAc(b1-2)Man(a1-6)]Man(b1-4)GlcNAc(b1-4)[Fuc(a1-6)]GlcNAc
# Method in brief: as §1
# [15] = target: GlcNAc(b1-2)Man(a1-3)[GlcNAc(b1-4)][GlcNAc(b1-2)Man(a1-6)]Man(b1-4)GlcNAc(b1-4)GlcNAc
# Method in brief: as §1
# [16] = target: GlcNAc(b1-2)Man(a1-3)[GlcNAc(b1-4)][GlcNAc(b1-2)Man(a1-6)]Man(b1-4)GlcNAc(b1-4)[Fuc(a1-6)]GlcNAc
# Method in brief: as §1
# [17] = target: GlcNAc(b1-2)[GlcNAc(b1-4)]Man(a1-3)[GlcNAc(b1-2)Man(a1-6)]Man(b1-4)GlcNAc(b1-4)GlcNAc
# Method in brief: as §1
# [18] = target: GlcNAc(b1-2)[GlcNAc(b1-4)]Man(a1-3)[GlcNAc(b1-4)][GlcNAc(b1-2)Man(a1-6)]Man(b1-4)GlcNAc(b1-4)GlcNAc
# Method in brief: as §1
# [19] = target: GlcNAc(b1-2)[GlcNAc(b1-4)]Man(a1-3)[GlcNAc(b1-4)][GlcNAc(b1-2)[GlcNAc(b1-6)]Man(a1-6)]Man(b1-4)GlcNAc(b1-4)GlcNAc
# Method in brief: as §1
# [20] = target: GlcNAc(b1-2)[GlcNAc(b1-4)]Man(a1-3)[GlcNAc(b1-4)][GlcNAc(b1-2)[GlcNAc(b1-6)]Man(a1-6)]Man(b1-4)GlcNAc(b1-4)[Fuc(a1-6)]GlcNAc
# Method in brief: as §1
# [21] = target: GlcNAc(b1-2)[GlcNAc(b1-6)]Man(a1-6)[GlcNAc(b1-2)Man(a1-3)]Man(b1-4)GlcNAc(b1-4)GlcNAc
# Method in brief: as §1
# [22] = target: GlcNAc(b1-2)[GlcNAc(b1-6)]Man(a1-6)[GlcNAc(b1-2)Man(a1-3)]Man(b1-4)GlcNAc(b1-4)[Fuc(a1-6)]GlcNAc
# Method in brief: as §1
# [23] = target: GlcNAc(b1-2)[GlcNAc(b1-6)]Man(a1-6)[GlcNAc(b1-4)][GlcNAc(b1-2)Man(a1-3)]Man(b1-4)GlcNAc(b1-4)GlcNAc
# Method in brief: as §1
# GlcNAc(b1-3)Fuc = target: GlcNAc(b1-3)Fuc
# Method in brief: as §1
# GlcNAc(b1-3)Gal = target: GlcNAc(b1-3)Gal
# Method in brief: as §1
# [24] = target: GlcNAc(b1-3)Gal(b1-3)GalNAc
# Method in brief: as §1
# GlcNAc(b1-3)Gal(b1-4)Glc = target: GlcNAc(b1-3)Gal(b1-4)Glc
# Method in brief: as §1
# [25] = target: GlcNAc(b1-3)Gal(b1-4)GlcNAc
# Method in brief: as §1
# [26] = target: GlcNAc(b1-3)Gal(b1-4)GlcNAc(b1-2)Man(a1-3)[GlcNAc(b1-3)Gal(b1-4)GlcNAc(b1-2)Man(a1-6)]Man(b1-4)GlcNAc(b1-4)GlcNAc
# Method in brief: as §1
# [27] = target: GlcNAc(b1-3)Gal(b1-4)GlcNAc(b1-2)Man(a1-3)[GlcNAc(b1-3)Gal(b1-4)GlcNAc(b1-2)Man(a1-6)]Man(b1-4)GlcNAc(b1-4)[Fuc(a1-6)]GlcNAc
# Method in brief: as §1
# [28] = target: GlcNAc(b1-3)Gal(b1-4)GlcNAc(b1-2)[GlcNAc(b1-3)Gal(b1-4)GlcNAc(b1-6)]Man(a1-6)[GlcNAc(b1-3)Gal(b1-4)GlcNAc(b1-2)Man(a1-3)]Man(b1-4)GlcNAc(b1-4)GlcNAc
# Method in brief: as §1
# [29] = target: GlcNAc(b1-3)Gal(b1-4)GlcNAc(b1-3)Gal(b1-4)GlcNAc
# Method in brief: as §1
# [30] = target: GlcNAc(b1-3)Gal(b1-4)GlcNAc(b1-3)Gal(b1-4)GlcNAc(b1-2)Man(a1-3)[GlcNAc(b1-3)Gal(b1-4)GlcNAc(b1-3)Gal(b1-4)GlcNAc(b1-2)Man(a1-6)]Man(b1-4)GlcNAc(b1-4)GlcNAc
# Method in brief: as §1
binder,measurement,setting,value
B1,glycan array binding signal (z-score),Glc(b1-6)Glc,0.363
same,glycan array binding signal (z-score),GlcA(b1-3)Gal,-0.632
same,glycan array binding signal (z-score),GlcA(b1-3)GlcNAc,-0.242
same,glycan array binding signal (z-score),GlcA(b1-6)Gal,-0.525
same,glycan array binding signal (z-score),[1],-0.525
same,glycan array binding signal (z-score),[2],-0.485
same,glycan array binding signal (z-score),[3],-0.109
same,glycan array binding signal (z-score),[4],-0.685
same,glycan array binding signal (z-score),[5],-0.538
same,glycan array binding signal (z-score),[6],-0.662
same,glycan array binding signal (z-score),[7],-0.696
same,glycan array binding signal (z-score),[8],-0.651
same,glycan array binding signal (z-score),[9],-0.668
same,glycan array binding signal (z-score),[10],-0.521
same,glycan array binding signal (z-score),[11],-0.307
same,glycan array binding signal (z-score),[12],-0.224
same,glycan array binding signal (z-score),[13],-0.471
same,glycan array binding signal (z-score),[14],-0.055
same,glycan array binding signal (z-score),[15],-0.042
same,glycan array binding signal (z-score),[16],-0.61
same,glycan array binding signal (z-score),[17],-0.429
same,glycan array binding signal (z-score),[18],-0.363
same,glycan array binding signal (z-score),[19],-0.531
same,glycan array binding signal (z-score),[20],-0.694
same,glycan array binding signal (z-score),[21],-0.498
same,glycan array binding signal (z-score),[22],-0.393
same,glycan array binding signal (z-score),[23],-0.614
same,glycan array binding signal (z-score),GlcNAc(b1-3)Fuc,-0.363
same,glycan array binding signal (z-score),GlcNAc(b1-3)Gal,-0.686
same,glycan array binding signal (z-score),[24],-0.537
same,glycan array binding signal (z-score),GlcNAc(b1-3)Gal(b1-4)Glc,-0.675
same,glycan array binding signal (z-score),[25],-0.616
same,glycan array binding signal (z-score),[26],-0.164
same,glycan array binding signal (z-score),[27],-0.244
same,glycan array binding signal (z-score),[28],-0.272
same,glycan array binding signal (z-score),[29],-0.186
same,glycan array binding signal (z-score),[30],1.23
